The supplement of paper PMC9174493
This is one part of the list. Single values of this set are uncertain. Values with irradiation are relative to irradiated vehicle.

System: A549-Dual
Test: NF-kB reporter (SEAP) activity, viability-corrected, relative to vehicle (fold change vs vehicle); higher = more activation of STING-IRF / NF-kB immune response reporter
Details: 1 µM; irradiation: none
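Also: viability correction based on the alamar blue assay, with concentrations leaving 10% survival or less dropped.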

Q: `O=c1[nH]c(=O)n(C2CC(O)C(CO)O2)cc1F` (stereo not drawn) [Floxuridine] was tested. Which NF-kB reporter did it give?
A: Its NF-kB reporter is 1.43.

Q: `CC1(C)CCC(CN2CCN(c3ccc(C(=O)NS(=O)(=O)c4ccc(NCC5CCOCC5)c([N+](=O)[O-])c4)c(Oc4cnc5[nH]ccc5c4)c3)CC2)=C(c2ccc(Cl)cc2)C1` [Venetoclax (ABT-199, GDC-0199)] was tested. Which NF-kB reporter did it give?
A: Its NF-kB reporter is 1.36.

Q: Which NF-kB reporter does the source give for `Cc1ccc(NC(=O)c2ccc(CN3CCN(C)CC3)cc2)cc1Nc1nc(-c2cccnc2)cs1` [Masitinib (AB1010)] here?
A: The NF-kB reporter was 1.34.

Q: How did the NF-kB reporter turn out when `CCc1cc(/C(C)=N/OCc2ccc(C3CCCCC3)c(C(F)(F)F)c2)ccc1CN1CC(C(=O)O)C1` [BAF312 (Siponimod)] was run?
A: The NF-kB reporter was 0.467.

Q: Which NF-kB reporter does the source give for `CN(C)C(=O)COC(=O)Cc1ccc(OC(=O)c2ccc(NC(=N)N)cc2)cc1.CS(=O)(=O)O` [Camostat Mesilate] here?
A: Its NF-kB reporter is 0.997.

Q: How did the NF-kB reporter turn out when `Nc1nc(=S)c2[nH]cnc2[nH]1` [Thioguanine] was run?
A: Its NF-kB reporter is 0.919.

Q: With `OCC1OC(Oc2cc(O)cc(/C=C/c3ccc(O)cc3)c2)C(O)C(O)C1O` (stereo not drawn) [Polydatin] as the molecule, how does the NF-kB reporter read?
A: Its NF-kB reporter is 1.5.

Q: With `COc1cc(N2CCC(N3CCN(C)CC3)CC2)ccc1Nc1ncc(Cl)c(Nc2ccccc2P(C)(C)=O)n1` as the molecule, how does the NF-kB reporter read?
A: The NF-kB reporter was 0.898.

Q: For `Cc1cccn2c(=O)c(-c3nnn[n-]3)cnc12.[K+]` [Pemirolast potassium], which NF-kB reporter is on record?
A: The NF-kB reporter was 0.975.

Q: Which NF-kB reporter does the source give for `Cc1cccc(N(C)C(=S)Oc2ccc3ccccc3c2)c1` [Tolnaftate] here?
A: Its NF-kB reporter is 0.86.

Same assay, conditions: 3 µM; irradiation: 8 Gy/4 fr

Q: `C=CC(=O)Nc1cc(Nc2nccc(-c3cn(C)c4ccccc34)n2)c(OC)cc1N(C)CCN(C)C` [Osimertinib (AZD9291)] was tested. Which NF-kB reporter did it give?
A: The NF-kB reporter was 1.02.

Q: `CC1CC2C3CCC4=CC(=O)C=CC4(C)C3(F)C(O)CC2(C)C1(O)C(=O)COP(=O)([O-])[O-].[Na+].[Na+]` (stereo not drawn) [Dexamethasone Sodium Phosphate] was tested. Which NF-kB reporter did it give?
A: Its NF-kB reporter is 0.65.

Q: Which NF-kB reporter does the source give for `O=C(O)CCCN1CCC(OC(c2ccc(Cl)cc2)c2ccccn2)CC1.O=S(=O)(O)c1ccccc1` (stereo not drawn) [Bepotastine Besilate] here?
A: The NF-kB reporter was 1.14.

Q: With `CC(=O)OC(C)C(C)C(=O)OCC12C3CC4(C)C(=CCC5C6(C)CCC(OC7OC(C(=O)[O][Na])C(OC8OC(CO)C(O)C(O)C8O)C(O)C7OC7OCC(O)C(O)C7O)C(C)(CO)C6CCC54C)C1CC(C)(C)C(O3)C2O` (stereo not drawn) [Sodium Aescinate] as the molecule, how does the NF-kB reporter read?
A: Its NF-kB reporter is 1.49.

Q: `Nc1nc(CC(=O)Nc2ccc(CCNCC(O)c3ccccc3)cc2)cs1` (stereo not drawn) [Mirabegron] was tested. Which NF-kB reporter did it give?
A: Its NF-kB reporter is 0.862.

Q: With `O=C1OC(OC(=O)c2cccnc2Nc2cccc(C(F)(F)F)c2)c2ccccc21` (stereo not drawn) [Talniflumate] as the molecule, how does the NF-kB reporter read?
A: Its NF-kB reporter is 1.07.

Q: `CN1C(C(=O)Nc2ccccn2)=C(O)c2sccc2S1(=O)=O` [Tenoxicam] was tested. Which NF-kB reporter did it give?
A: Its NF-kB reporter is 1.53.

Q: How did the NF-kB reporter turn out when `CCC(=O)NS(=O)(=O)c1ccc(-c2c(-c3ccccc3)noc2C)cc1` [Parecoxib] was run?
A: Its NF-kB reporter is 1.24.

Q: Which NF-kB reporter does the source give for `CNCC(O)C(O)C(O)C(O)CO.Cc1c(Nc2ncccc2C(=O)O)cccc1C(F)(F)F` [Flunixin Meglumin] here?
A: The NF-kB reporter was 1.38.

Q: With `Cc1cncc(CN2CCC(=C3c4ccc(Cl)cc4CCc4cccnc43)CC2)c1.O=C(O)/C=C/C(=O)O` [Rupatadine Fumarate] as the molecule, how does the NF-kB reporter read?
A: Its NF-kB reporter is 0.593.

Q: With `COC(=O)CC(O)(CCCC(C)(C)O)C(=O)OC1C(OC)=CC23CCCN2CCc2cc4c(cc2C13)OCO4` (stereo not drawn) [Homoharringtonine] as the molecule, how does the NF-kB reporter read?
A: Its NF-kB reporter is 2.15.

Q: With `CC(C(=O)[O-])c1ccc(CC2CCCC2=O)cc1.[Na+]` (stereo not drawn) [Loxoprofen Sodium] as the molecule, how does the NF-kB reporter read?
A: Its NF-kB reporter is 1.06.

Q: For `C=C1c2cccc(O)c2C(=O)C2=C(O)C3(O)C(=O)C(C(N)=O)=C(O)C(N(C)C)C3C(O)C12.Cl` (stereo not drawn) [Methacycline HCl], which NF-kB reporter is on record?
A: Its NF-kB reporter is 0.751.

Q: `CC1CCC2(C(=O)OC3OC(COC4OC(CO)C(OC5OC(C)C(O)C(O)C5O)C(O)C4O)C(O)C(O)C3O)CCC3(C)C(=CCC4C5(C)CC(O)C(O)C(C)(CO)C5CCC43C)C2C1C` (stereo not drawn) [Asiaticoside] was tested. Which NF-kB reporter did it give?
A: Its NF-kB reporter is 1.36.

Q: Which NF-kB reporter does the source give for `Nc1nc(F)nc2c1ncn2C1OC(CO)C(O)C1O` (stereo not drawn) [Fludarabine] here?
A: Its NF-kB reporter is 0.886.

Q: With `O=NN(CCCl)C(=O)NC1CCCCC1` [Lomustine] as the molecule, how does the NF-kB reporter read?
A: Its NF-kB reporter is 0.87.

Q: `O=CC(O)C(O)C(O)C(O)COC1OC(CO)C(O)C(O)C1O` (stereo not drawn) [Melibiose] was tested. Which NF-kB reporter did it give?
A: The NF-kB reporter was 1.73.

Q: `O.S=c1nc[nH]c2nc[nH]c12` [6-Mercaptopurine (6-MP) Monohydrate] was tested. Which NF-kB reporter did it give?
A: The NF-kB reporter was 0.844.
